Reference: article PMC6919601, “Identification of Plasmodium dipeptidyl aminopeptidase allosteric inhibitors by high throughput screening” (PLoS ONE, 2019)
The campaign covered roughly 110,000 compounds. About 230 (0.21%) showed an effect of 50% or more. The list shows a part of the results.

target: DPAP1 (Plasmodium falciparum, UniProt Q8IIJ9); assay: primary screen, percent inhibition; read by cleavage of a fluorogenic dipeptide substrate; higher = more effect of the substance; set-up: species or system P. falciparum D10 trophozoite lysates; single well
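Note: 30 min substrate incubation versus DMSO and 10 µM JCP410 controls.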

DPAP1, sequence (Q8IIJ9 whole entry, looked up): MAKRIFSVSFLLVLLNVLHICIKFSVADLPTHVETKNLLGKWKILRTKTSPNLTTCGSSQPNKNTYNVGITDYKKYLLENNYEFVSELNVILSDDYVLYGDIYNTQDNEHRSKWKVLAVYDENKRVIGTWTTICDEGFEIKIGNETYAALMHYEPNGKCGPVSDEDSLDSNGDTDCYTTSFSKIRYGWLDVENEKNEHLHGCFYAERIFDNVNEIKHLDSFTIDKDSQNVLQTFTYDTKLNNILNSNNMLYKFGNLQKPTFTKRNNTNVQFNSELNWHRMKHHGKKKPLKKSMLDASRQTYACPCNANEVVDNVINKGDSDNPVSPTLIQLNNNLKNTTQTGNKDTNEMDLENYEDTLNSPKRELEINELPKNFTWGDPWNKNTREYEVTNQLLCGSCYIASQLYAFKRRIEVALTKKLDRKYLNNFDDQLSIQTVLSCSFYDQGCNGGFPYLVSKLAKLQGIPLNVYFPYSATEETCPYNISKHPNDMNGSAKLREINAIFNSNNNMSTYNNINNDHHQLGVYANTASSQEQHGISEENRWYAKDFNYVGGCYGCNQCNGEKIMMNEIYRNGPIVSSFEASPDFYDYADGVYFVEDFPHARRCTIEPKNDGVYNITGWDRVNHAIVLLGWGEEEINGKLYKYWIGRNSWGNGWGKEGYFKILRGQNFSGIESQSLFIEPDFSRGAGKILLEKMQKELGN

| Structure (SMILES) | % Inhibition @ 10 uM |
| --- | --- |
| O=C(Cn1ccc2ccccc2c1=O)NCCC(=O)Nc1cccnc1 | 5.12% |
| CCCCNS(=O)(=O)c1ccc(NS(=O)(=O)c2ccc(Br)cc2)cc1 | -7.58% |
| CCOc1ccc(NC(=O)CN2C(=O)S/C(=C/c3cc(C)n(-c4ccncc4)c3C)C2=O)cc1 | 7.62% |
| O=C(NC1CCCCC1)c1ccc(Cl)c(S(=O)(=O)N2CCCCCC2)c1 | 6.69% |
| N#CC1(c2ccccc2)CCCN1C(=O)c1ccco1 (stereo not shown) | -1.02% |
| Cc1cccc(NC(=O)CN(c2cccc(Br)c2)S(C)(=O)=O)c1 | -5.92% |
| Cc1ccc(NC(=O)CCNS(=O)(=O)c2ccc3nc(O)ccc3c2)nc1 | -5.23% |
| Cc1oc2ncn(C)c(=O)c2c1C(=O)N(C)Cc1ccccc1 | -4.17% |
| Cc1cc(=O)n(CC(=O)N2CCOCC2)c2c1c(C)nn2C | -1.56% |
| CC(C)(C)N(Cc1ccccc1)C(=O)c1cccs1 | -3.44% |
| O=C1CCCC2=C1C(c1ccc(OCc3ccccc3F)cc1)C1=C(CCCC1=O)O2 | 1.88% |
| CC(C(=O)N1CCCCC1)n1c2ccccc2c2cnn(C)c(=O)c21 (stereo not shown) | -3.79% |
| CC1Cc2ccccc2N1S(=O)(=O)c1ccc(Cl)nc1 (stereo not shown) | 0.389% |
| COc1ccc(OC)c(CN2CCCC(O)C2)c1 (stereo not shown) | -2.56% |
| COc1cccc(-n2nnc3c(=O)n(CC(=O)NCc4ccco4)cnc32)c1 | 1.24% |
| COc1ccccc1C(=O)Nc1ccc2oc(-c3ccc(Cl)cc3Cl)nc2c1 | 1.91% |
| COc1ccc(Br)cc1/C=C1/N=C(c2cccc3ccccc23)OC1=O | -5.11% |
| CC1CCCN(Cc2c(C(=O)O)[nH]c(=O)[nH]c2=O)C1 (stereo not shown) | 1.32% |
| C=C(C)[C@@H]1CC=C(CNc2ccc(OC)c(OC)c2)CC1 | -4.14% |
| O=C(Cn1ncn2c(cc3sccc32)c1=O)NC1CCCCCC1 | 7.91% |
| C#CC(C)(CC)NC(=O)c1cnn2c(C(F)(F)F)cc(-c3cccs3)nc12 (stereo not shown) | -0.834% |
| Cc1nn(C)c(C)c1C(=O)NS(=O)(=O)c1ccccc1Cl | -3.58% |
| CC(C)COC(=O)NCC12C=CC(O1)C1C(=O)N(Cc3ccccc3)C(=O)C12 (stereo not shown) | -5.47% |
| O=C(O)CCC(=O)Nc1cccc(NC(=O)c2ccc(Br)cc2)c1 | 8.27% |
| Oc1ccc2c(Cl)cc(Cl)c(O)c2n1 | 1.13% |
| O=C(CCCN1C(=O)CSc2ncccc21)NC1CCCCCC1 | -2.37% |
| Cn1c2c(c(=O)n(C)c1=O)C(Nc1nc3ccccc3s1)(C(F)(F)F)C(=O)N2 (stereo not shown) | -1.52% |
| CCOC(=O)c1sc2ncn3c(-c4cccc(OC)c4)nnc3c2c1C | 2.25% |
